Laboratory results from PubChem BioAssay AID488969 (Vanderbilt High Throughput Screening Facility, 2010).
Over roughly 110,000 compounds, “z-score” has its median near -0.1; the highest 2% begin near 2. The list shows a part of the results. Activity calls are given as the source filed them.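 Rule for the calls: active = z-score in the third read window above 3 or below -3; inactive = the rest.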

The compounds below were run against Metabotropic glutamate receptor 8 (Rattus norvegicus) (UniProt P70579) (assay: mGluR8 Gi/Go-coupled signaling modulation – cell-based, rat, thallium flux, HTS, primary screen (AID 488969)). Details: HEK293 rat mGluR8, GIRK (G protein-gated inwardly rectifying potassium channel) thallium flux, FluoZin2; at 10 µM; stronger effect = higher value; submaximal glutamate (EC20) added with thallium.
Chain of UniProt P70579 (P70579 whole entry, looked up): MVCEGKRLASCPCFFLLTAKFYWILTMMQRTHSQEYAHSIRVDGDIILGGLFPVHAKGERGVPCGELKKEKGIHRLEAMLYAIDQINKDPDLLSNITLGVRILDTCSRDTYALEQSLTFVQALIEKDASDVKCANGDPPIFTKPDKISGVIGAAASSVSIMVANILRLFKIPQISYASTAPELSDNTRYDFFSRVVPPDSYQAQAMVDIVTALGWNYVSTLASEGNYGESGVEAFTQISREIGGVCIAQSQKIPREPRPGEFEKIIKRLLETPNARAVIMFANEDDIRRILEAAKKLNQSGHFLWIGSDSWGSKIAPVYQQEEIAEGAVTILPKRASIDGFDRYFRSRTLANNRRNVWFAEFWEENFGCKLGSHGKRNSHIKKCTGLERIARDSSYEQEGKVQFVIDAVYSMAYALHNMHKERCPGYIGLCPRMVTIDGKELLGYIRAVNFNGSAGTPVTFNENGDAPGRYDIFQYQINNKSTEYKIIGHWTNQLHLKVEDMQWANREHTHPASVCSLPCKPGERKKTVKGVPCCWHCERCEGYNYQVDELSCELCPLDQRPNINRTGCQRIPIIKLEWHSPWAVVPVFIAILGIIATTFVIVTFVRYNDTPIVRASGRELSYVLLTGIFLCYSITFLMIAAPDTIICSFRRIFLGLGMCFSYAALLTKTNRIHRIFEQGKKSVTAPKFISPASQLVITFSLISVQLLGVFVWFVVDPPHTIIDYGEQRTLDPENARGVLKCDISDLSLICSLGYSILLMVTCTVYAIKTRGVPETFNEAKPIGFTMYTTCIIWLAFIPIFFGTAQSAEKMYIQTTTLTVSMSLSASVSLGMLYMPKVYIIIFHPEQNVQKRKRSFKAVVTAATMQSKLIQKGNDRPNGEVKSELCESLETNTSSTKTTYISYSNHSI

Row | Compound | z-score
1 | CC(C)(C)NC(=O)NC(=O)Cn1ccsc1=N | 0.0647
2 | Cc1cccc(C)c1-n1c(SCC(=O)NCc2ccco2)nc2ccccc2c1=O | -0.305
3 | O=C(O)c1ccc(NC(=O)C2(c3ccccc3)CCOCC2)cc1 | -0.264
4 | Cc1ccc2[nH]c(=O)c(C3=NN(C(=O)CCC(=O)O)C(c4cccs4)C3)c(-c3ccccc3)c2c1 (stereo unspecified) | -0.213
5 | Cc1ccc2nc(NC(=O)c3ccc(NS(=O)(=O)c4cccs4)cc3)sc2c1 | 0.062
6 | Cc1nc2cc(C(=O)OCC(=O)NC3CCS(=O)(=O)C3)ccc2n1-c1ccccc1 (stereo unspecified) | -0.113
7 | Cc1c(C#N)c(NC(=O)c2cccc(Cl)c2)n(Cc2ccccc2)c1C | -0.0717
8 | CCCSc1nc(C)cc(C)c1S(=O)(=O)c1ccccc1C | -0.378
9 | O=C(Nc1ccccn1)c1cc(-n2cnnc2)ccc1Cl | 0.123
10 | Cc1ccccc1NC(=O)N1CCCC1C(=O)NCc1cccs1 (stereo unspecified) | -0.229
11 | O=C(CN1C2CCCC1CC(NC(=O)c1ccccc1)C2)Nc1nccs1 (stereo unspecified) | -0.0904
12 | CC1=NN(C(N)=S)C(=O)C1N=Nc1ccccc1C (stereo unspecified) | 2.97
13 | COc1ccc(C(=O)Nc2ccc(S(=O)(=O)Nc3nccc(C)n3)cc2)cc1OC | -0.481
14 | O=C(NNS(=O)(=O)c1ccc(F)c(Cl)c1)c1cccc(S(=O)(=O)N2CCOCC2)c1 | -0.0447
15 | Cn1c(=O)c2c(ncn2CC(O)CNc2ccc(Cl)cc2)n(C)c1=O (stereo unspecified) | 1.26
16 | COc1cccc(-n2c(SCC(=O)O)nnc2-c2cccnc2)c1 | -0.336

Row | Compound | z-score
17 | CC(=O)c1c(N2CCN(c3cccc(Cl)c3)CC2)nc(=S)n(-c2ccccc2)c1C | 0.246
18 | CCCc1cc(-c2n[nH]c(=S)n2CC(C)C)cs1 | active: 4.16
19 | O=C(COC(=O)c1ccccc1F)c1ccc(-n2nncc2-c2ccco2)cc1 | -0.18
20 | CC/C(O)=C1\C(=O)CC(c2ccccc2)CC1=NC(C)C (stereo unspecified) | -0.434
21 | Cc1ccc(C(=O)Nc2ccc(O)c(C(=O)O)c2)o1 | -0.359
22 | CC(NS(=O)(=O)c1ccccc1)C(=O)NCc1ccco1 (stereo unspecified) | -0.316
23 | CNC(=S)N/N=C(\C)c1cccc([N+](=O)[O-])c1 | -0.339
24 | C=CCn1c(P(=O)(O)c2ccccc2)nc2ccccc21 | -0.205
25 | O=C(CSCc1c(F)cccc1Cl)NCc1cccnc1 | -0.196
26 | CCOC(=O)CSc1nnc2n1C(C)(C)Cc1ccccc1-2 | 0.0272
27 | COc1ccc(C(N)=S)cc1 | -0.0844
28 | CCOc1ccc(NC(=O)CN(C2CCCCC2)S(C)(=O)=O)cc1 | 0.101
29 | O=C(CCl)NCc1c(Cl)cccc1-n1cccc1 | 0.0712
30 | CCCn1nnc(NC(=O)c2cc3ccccc3o2)n1 | 0.258
31 | Cc1ccc(S(=O)(=O)N2CCOCC2)cc1C(=O)NCc1ccc2c(c1)OCO2 | -0.442
